The source gives no read counts; variants with many changes may rest on few reads.
B1: OR4K15 (parent)
chain: GUUAACGGUCAUAGGCCAUGGAAACUAGGAGCACCAUUUCGCUGCCAGUGAAGAAAUGAACAAAGAAAAUCUGGGCCAGGCAGGCAUCAAAAGAAAUAGUCUUGCGCUCAACCAGAAAGUCUGUAAUCAUUUUAAGGGUA

Variants of: B1
Assay: self-cleavage, relative activity (ratio to wild type); higher = more cleavage; in vitro, sequencing; the parent is a self-cleaving ribozyme

Row | Variant | self-cleavage
1 | GUUAACGGUCAUAGGCCAUGGGAACUAGGAGCACCAUUUCGCUGCCAGUGUAGAAAUGAACGAAGAAAAUCUGGGCCAGGCAGGCAUCAAAAGAAAUAGUCUUGCGCUCAACCAGAAAGUCUGUAAUCAUUUUAAGGGUA | 1.46
2 | GUUAACGGUCAUAGGCCUUGGAAACUAGGAGCACCAUUUCGCUGCCAGUAAAGAAGUGAACAAAGAAAAUCUGGGCCAGGCAGGCAUCAAAAGAAAUAGUCUUGCGCUCAACCAGAAAGUCCGUAAUCAUCUUAAGGGUA | 1.14
3 | GCUAACGGUCAUAGGCCAUGGAAACUAGGAGCACCAUUUCGCUGCCAGUGAAGAAAUGAACAAAGAAAAUCUGGGCCAGGCAGGCAUCAAAAGAAAUAGUCCUGCGCUCAACCAGAAAGUCUGUAAUCAUCUUAGGGGUA | 0.84
4 | GUUAACGGUCAUAGGCCAUGGGAACUAGGAGCACCAUUUCGCUGCCAGCGAAGAAAUGAACGAGGAAAAUCUGGGCCAGGCAGGCUCCAAAAGGAGUAGUCUUGCGCUCAACCAGAAAGUCUGUAAUCAUUUUAAGGGUA | 0.18
5 | GUUAACGGUCAUAGGACAUGGAAACUAGGAGCACCAUUUCGCUGCCAGUGAAGAAAUGAACAAAGAAAAUCUGGGCCAGGCAGGCAUCAAAAGAAGUAGUCUUGCGCUCAACCAGAAGGUCUGUAAUCAUUUUAAGGGUA | 0.21
6 | GUUAACGGUCAUAGGCCAUGGAAACUAGGAGCACCAUUUCGCUGCCAGUGAAGAAAUGAACAAAGAAAGUCUGGGCCUGGCAGGCAUCAAAAGAAAUAGUCGUGCGCACAACCAGAAAGUCUGUAAUCAUUUUAAGGGUA | 0.01
7 | GUUAACGGUCAUAGGCCAUGGAAACUAGGAGCACCAUUUCGCUGCCAGUGAAGAAAUGAACAAAGAAAAUCUGGGCCAGGCAGGCAUCGAAAGCAAUAGUCUUGCGCUCUACCAGAAAGUCUGUAAUCAUUUUAAGGGUA | 1.17
8 | GUUAUCGGUCAUAGGCCAUGGAAACUAGGAGCACCAUUCCGCUGCCAGUGAAGAAAUGAACAAAGAAAAUCUGGGCCAGGCAGGCAUCAAAAGAAAUGGCCUUGCGCUCAACCAGAAAGUCUGUAAUCAUUUUAAGGGUA | 1.27
9 | GUUAACGGUCAUAGGCCAUGGAAACGAGGAGCGCCAUUUCGCUGCCAGUGGAGAAAUGAACAAAGAAAAUCUGGGCCAGGCAGGCAUCAGAAGAAAUAGCCUUGCGCUCAACCAGCAGGUCUGUAAUCAUUUUAAGGGUA | 0.02
10 | GUUAACGGUCAUAGGCCAUGGAAACUAGGAGCACCACUUCGCGGCCAGUGAAGAAAUGAACAAAGAAAAUCUGGGCCAGGCAGGCAUCAAAAGAAAUAGUCUCGCGCUCAACCAGAAAGUCUGUAAUCAUUUUAAGGGUA | 1.22
11 | GUUAACGGUCAUAGCCCAUGGAAACUAGGAGCACCAUUUCGCUGCCAGUGAAGAAAUGAACGAAGAAAAUCUGGGCCUGGCAGGCAUCAAAAGAAAUAGUCUUGCGCUCAACCAGAAAGUCUGUAAUCAUUUUAAGGGUA | 0.42
12 | GUUAACGGUCAUAGGCCAUGGAAACUAGGAGCACCACUUCGCUGCCAGUGAAGAAAUGAACAAAGGAAAUCAGGGCCAGGCAGGCAUCAAAAGAAAUAGUCUUGCGCUCAGCCAGAAAGUCUGUAAUCAUUUUAAGGGUA | 0.02
13 | GUUAACGGUCAUAGGCCAUGGAAACUAGGAGCACCAUUCCGCUGCCAGUGAAGAAAUGAACAAAGAAAAUCUGGGCCAGGCAUGCAUCAAGAGAAAUAGUCUUGCGCUCAACCAGAAAGUCUGUAAUCAUUUUAAGGGUA | 0.09
14 | GUUAACGGUCAUAGGCCAUGGAAACUAGGAGCACCGCUUCGCUGCCAGUGAAGAAAUGAACAAAGAAAAUCUGGGCCAGGCAGGCAUCAAAAGAAAUAGUCUUGCGCUCAACCAGAAAGUCUGUAAUCAUUGUAAGGGUA | 1.81
15 | GUUAACGGUCAUAGGCCAUGGAAACUAGGAGCACCAUUUCGCUGCCAUUGAAGAAGUGAACAAAGAAAAUCUGGGCCGGGCAGGCAUCAAAAGAAAUAGUCUUGCGCUCAACCAGAAAGUCUGUAAUCAUUUUAAGGGUA | 0.04
16 | GUAAGCGGUCAUAGGCCAUGGAAACUAGGAGCACCAUUUCGCUGCCAGUGAAGAAAUGAACGAAGAAAAUCUGGGCCAGGCUGGCAUCAAAAGAAAUAGUCUUGCGCUCAACCAGAAAGUCUGUAACCAUUUUAAGGGUA | 0.15
17 | GUUAACGCUCAUAGGCCAUGGAAACUAGGAGCACCAUUUCGCUGCCAGUGAAGAGAUGAACAAAGAAAAUCUGGGCCAGGCAGGCAUCAAAAGAAAUAGUCUUGCGCUCAACCAGAAAGUCUGUAAUCAUUCUAAGGGUA | 1.99
18 | GUUAACGGUCAUAGGCCAUGGAAACUAGGAGCACCAUUUCGCUGCCAGUGGAGAAAUGAACAAAGAAAUUCUGGGCCAGGCAGGCAUCAAAAGAAAUAGUCUUGCGCUCAACCGGAAAGUCUGUAAUCAUUUUAAGGGUA | 1.52
19 | GUUAACGGUCAUAGGCCAUGGAAACUAGGAGCACCAUCUCGCUGCCAGUGAAGAAGUGAACAAAGAAAACCUGGGCCAGGCAGGCAUCAAAAGAAAUAGUCUUGCGCUCAACCAGAAAGUCUGUAAUCAUUUUAAGGGUG | 0.43
20 | GUUGACGGUCAUAGGCCAUGGAAACUAGGAGCACCAUUUCGCUGCCAGUGAAGAAAUGAACAAAGACAAUCUGGGCCAGGCAGGCAUCAAAAGGAAUAGUCCUGCGCUCAACCAGAAAGUCUGUAAUCAUUUUAAGGGUA | 1.43
21 | GUUAACGGCCAUAGGCCAUGGAAACUAGGAGCACCAUUUCGCUGCCAGUGAAGAAAUGAACAAAGAAAAUCUGGGCCGGGCAGGCAUCAAAAGAAAUAGUCUUGCGCUCAACCAGAAAGCCUGUAAUCAUUUUAAGGGUA | 0.11

Row | Variant | self-cleavage
22 | GUUAACGGUCAUAGGCCAUGGAAACUAGGAGCACCAUUUCGCUGCCAGCGAAGAAAUGAACAAAGAAAAUCUGGGCCAGGCAGGCACCAAAAGAAAUAGUCUUGCGCUCAACCAGUAAGUCUGUAAUCAUUUUAAGGGUA | 0.17
23 | AUUAACGGUCAUAGGCCAUGGAAACUAGGAGCACCAGUUCGCUGCCAGAGAAGAAAUGAACAAAGAAAAUCUGGGCCUGGCAGGCAUCAAAAGAAAUAGUCUUGCGCUCAACCAGAAAGUCUGUAAUCAUUUUAAGGGUA | 0.59
24 | GUUAACGGUCAUAGGCCAUGGAAACUAGGGGCACCAUUUCGCUGCCAGUGAAGAAAUGAACAAAGAAAAUCUGGGCCAGGCUGGCAUCAAAAGGAUUAGUCUUGCGCUCAACCAGAAAGUCUGUAAUCAUUUUAAGGGUA | 0.18
25 | GUUAACGGUCGUAGGCCACGGAAACUAGGAGCACCAUUUCGCUGCCAGUGGAGAAAUGAACAAAGAAAAUCUGGGCCAGGCAGGCAUCAAGAGAAAUAGUCUCGUGCUCAACCAGAAAGUCUGUAAUCAUUUUAAGGGUA | 0.03
26 | GUUAACGGUCAUAGGCCAUGGAAACUAGGAGCGCCAUUUCGCUGCCAGUGAAGAAAUGAACAAAGAAAAUCUGGGCCAGGCAGGCAUCAAAAGAAAUAGUCUUGCGCUCAACCAGAAAGUCCGUAAUCAUUUUAAGGGCA | 0.35
27 | GUUAACGGUCAUAGGCCAUGGAAACUAGGAGCACCAUUUCGCUGCCAGUGAAGAAAUGAACAAAGAAAACCUGGACCAGGCAGGCACCAAAAGAAAUAGUCUUGCGCUCAACCAGAAAGUCUGUAAUCAUUUUAAGGGUA | 0.26
28 | GUUAACGGUCAUAGGCCAAGGAAACUAGGAGCACCAUUUCGCUGCCAGUGAAGAAAUGAACAAUGAAAAUCUGGGCCAGGCAGGCAUCAAAAGAAAUAGUCCUGCGCUCAACCAGAAAGUCUGUAAUCAUCCUAAGGGUA | 2.55
29 | GUUAACGGUCAUAGGCCAUGGAGACUAGGAGCACCAUUUCGCUGCCAGUGAAGAAAUGAACUAAGAAAAUCUGGGCCAGGCAGGCAUCAAAAGAAAUAGUCUUGCGCUCAACCAGAAAGUUUGUAAUCAUUUUAAGGGUA | 1.43
30 | GUUAACGGUCAUAGGCCAUGGAAACUGGGAGCACCAUUCCGCUGCCAGUGAAGAAAUGAACAAAGAAAAUCUGGGCCAGGCAGGCAUCAAAAGAAAUAGUCUUGCGCUCAACCAGAAAGUCCGUAAUCAUUUUAAGGGUA | 1.12
31 | GUUAACGGUCAUAGGCCAUGGAAACUAGGAGCACCAUUUCGCUGCCAGUGAAGAAAUGAACAAAUAAAAUUUGGGCCAGGCAGGCAUCAAAAGAAAUAGUCUUGCGCUCAACCAGAAAGUCUGAAAUCAUUUUAAGGGUA | 0.05
32 | GUAAACGGUCAUAGGCCUUGGUAACUAGGAGCACCAUUUCGCUGCCAGUGAAGAAAUGAACAAAGAAAAUCUGGGCCAGGCCGGCAUCAAAAGAAAUAGUCUUGCGCUCAACCAGGAAGUCUGUAAUCAUUUUAAGGGUA | 0.03
33 | GUUAACGGUCAUAGGCCAUGGAAACUAGGAGCACCAUUUCGCUGCCUGUGAAGAAAUGAACAAAGAAAAUCUGGGCCAGGCAGGCAUCAAAAGAAAUAGUCUUGCGCUCAACCAGGAAGCCUGUAAUCAUUUUAAGGGUA | 0.14
34 | GUUAACAGCCAUAGGCCACGGAGACUAGGAGCACCAUUUCGCUGCCAGUGAAGAAAUGAACAAAGAAAAUCUGGGCCAGGCAGGCAUCAAAAGAAAUAGUCUUGCGCUCAACCAGAAAGUCUGUAAUCAUUUUAAGGGUA | 2.06
35 | GUUAACGGUCAUAGGCCAUGGAAACUAGGAGCACCACUCCGCUGCCAGUGAAGAAAUGAACAAAGAAAAUCUGGGCCAGGCAGGCACCAAAAGAAAUAGUCUUGCGCUCAACCAGAAAGUCUGUAAUCAUUUUAAGGGUA | 1.43
36 | GUUAACGGUCAUAGGCCAUGGAGACUAGGAGCACCACUACGCUGCCAGUGUAGAAGUGAACAAAGAAAAUCUGGGCCAGGCAGGCAUCAAAAGAAAUAGUCUUGCGCUCAACCAGAAAGUCUGUAAUCAUUUUAAGGGUA | 1.34
37 | GUUAACGGUCAUAGGCCAUGGAAACUAGGAGCACCAUUUCGCUGCCAGCGAAGAGGUGAACAAAGAAAAUCUGGGCCAGGCAGGCAUCAAAAGAAAUAGUCUUGCGCUCAACCAGAAAGUCUGUAAUCAUUUUAAGGGUA | 1.37
38 | GUUAACGGUCAUAGGCCAUGGAAACUAGGAGCACCGUCUCGCUGCCAGUGAAGAAAUGAACAAAGAAAACCUGGGCCAGGCAGGCAUCAAAAGAAAUAGUCUUGCGCUCAACCAGAGAGUCUGUAAUCAUUUUAAGGGUA | 1.43
39 | UUUAACGGUCAUAGGCCAUGGAAACUAGGAGCACCAUUUCGCUGCCAGUGAAGAAAUGAACAAAGAAGAUCUGGGCCAGGCAGGCAUCAAAAGAAGUAGUCUUGCGCUCAACCAGAAAGUCUGUAAUCAUUUUAAGGGUA | 2.14
40 | GUUAACGGUCAUAGGCCAUGGGAACUAGGAGCACCAUUUCGCUGCCAGUGAAGGAAUGAACAAAGAAAAUCUGGGCCAGGCAGGUAUCAAAAGAAAUAGUCUUGCGCUCAACCAGAAAGUCUGUAAUCAUUUUAAGGGUA | 0.85
41 | GUUAACGGUCAUAGGCCGUGGAAACUAGGAGCACCAUUUCGCUGCCAGUGAAGAAAUGUACAAAGAAAAUCUGGGCCAGGCAGGCAUCAAAAGAAAUAGUCUUGCGCUCAGCCAGAAAGUCUGUAACCAUUUUAAGGGUA | 0.01
